Measured values reported in the RNAGym collection of RNA variant scans (doi:10.7554/elife.90254).
Read counts are not given, so values of variants with three or more changes are uncertain.

B1: OR4K15 (parent)
chain: GUUAACGGUCAUAGGCCAUGGAAACUAGGAGCACCAUUUCGCUGCCAGUGAAGAAAUGAACAAAGAAAAUCUGGGCCAGGCAGGCAUCAAAAGAAAUAGUCUUGCGCUCAACCAGAAAGUCUGUAAUCAUUUUAAGGGUA

Variants of: B1
Assay: self-cleavage, relative activity (ratio to wild type); higher = more cleavage; in vitro, sequencing; the parent is a self-cleaving ribozyme

Row | Variant | self-cleavage
1 | GUUAGCGGUCAUAGGCCGUGGAAACUAGGAGCACCAUUCCGCUGCCAGUGAAGAAAUGAACAAAGAAAAUCUGGGCCAGGCAGGCAUCAAAAGAAAUAGUCUUGCGCUCAACCAGAAAGUCUGUAAUCAUUUUAAGGGUA | 0.78
2 | GUUAACGGUCAUAGGCCAUGGAAACUAGGAGCGCCAUUUCGCUGCCAGUGAAGAAAUGAGCAAAGAAAAUCUGGGCCAGGCGGGCAUCAAUAGAAAUAGUCUUGCGCUCAACCAGAAAGUCUGCAAUCAUUUUAAGGGUA | 0.26
3 | GUUAACGGCCACAGGCCGUGGAAACUAGGAGCACCAUUUCGCUGCCAGAGAAGAGAUGAACUAAGAAAAUCCGGGCCAGGCAGGCAUCAAAAGAAAUAGUCUUGCGCUCAACCAGAAAGUCUGUAAUCAUCUUAAGGGUA | 0.27
4 | GUUAACGGUCAUAGGCCAUGGAAACUAGGAGCACCAUUUCGCUGCCAGUGGAGAAAUGAACAGAGAAAAUCUGGGCCAGGCAGGCAUCAGAAGAAAUAGUCUUGCGCUCAACCAGAAAGUCUGUAAUCAUUUUAAGGGUA | 1.87
5 | GUUAACGGUCAUAGGCCAUGAAAACUAGGAGCACCAUUUCGCUGCCAGUGAAGAAAUGAACAAAGAUAAUCUGGGCCAGGCAGGCACCAAAAGAAAUAGUCUUGCGCUCAACCAGAAAGUCUGUAAUCAUUUUAAGGGUA | 1.6
6 | GUUAACGGUCAUAGGCCAUGGAAACUAGGAGCACCAUUUCGCUGCCAGUGAAGAAAUGAACAAAGAAAAUCUGGGCCAGGCAGGCUUCAAGAGAAAUAGUCUUGCGCUCAACCAGAAAGUCUGUAAUCAUCUUAAGGGUA | 2.11
7 | GUUAACUGUCAUAGGCCAUGGAAACUAGGAGCACCAUUUCGCUGCCAGUGAGGGAAUGAACAAAGAAAAUCUGGGCCGGGCAGGCACCAAAAGAAAUAGUCUUGCGCUCAACCAGAAAGUCUGUAAUCAUUUUAAGGGUA | 0.14
8 | GUUAACGGUCAUAGGCCAUGGAAACUAGGAGCACCAUUUCGCUGCCAGUGGGGAAAUGAACAAAGAAAGUCUGGGCCAGGCAGGCAUCAAAAGAAAUAGUCUUGCGCUCAACCAGAAAGUCUGUAAUCAUUUUAAGGGUA | 0.98
9 | GUUAACGGUCAUAGGCCAUGGAAACUAGGAGCACCAUUUCGCUGCCAGUGAAGAAAUGAGCACAGAAAAUCUGGGCCAGGCAGGCAUCAAAAGAAAUAGUCUUGCGCUCAACCAGAAAGUCCGUAAUCAUUUUAAGGGUA | 0.92
10 | GUUAACGGUCAUAGGCCAUGGAAACUAGGAGCACCAUUUCGCUGCCAGUGAAGAAAUGAGCAAAGAAAAUCUGGGCCAGGCGGGCAUCAAAAGAAAUAGUCUCGCGCUAAACCAGAAAGUCUGUAAUCAUUUUAAGGGUA | 0.58
11 | GUUAACGGUCAUAGGCCAUGGAUACUAGGGGCACCAUUUCGCUGCCAGUGAAGAAAUGAACAAGGAAAAUCUGGGCCAGGCAGGCAUCAAAAGAAAUAGUCUUGCGCUCAACCAGAAAGUCUGUAAUCAUUUUAAGGGUA | 1.25
12 | GUUAACGGUCAUAGGCAAUGGAAACUAGGAGCACCAUUUCGCUGCCAGUGAAGAAAUGAACAAAGAAAAUCUGGGCCAGGCAGGCGUCAAAAGAAAUAGUCUUGCGCUCAACCAGAAAGUCCGUUAUCAUUUUAAGGGUA | 0.91
13 | GUUAACGGUCAUAGGCCAUGGAAACUAGGAGCACCAUUUCGCUGCCAGUGAAGAAAUGGACAAAGAAAAUCUGGGCCAGGCAGGCAUCAAAAGAAAUAGUCUUGCGCUCAACCAGAGAGUCUGUAAUCAUUUUAAGGGAA | 0.91
14 | GUUAACGGUCAUAGGCCAUGGGAACUAGGAGCACCACUUCGCAGCCAGUGAAGAAAUGAACAAAGAAAAUCUGGGCCAGGCAGGCAUCAAAAGAAAUAGUCUUGCGCUCGACCAGAAAGUCUGUAAUCAUUCUAAGGGUA | 0.13
15 | GCUAACGGUCAUAGGCCAUGGAAACUAGGAGCACCAUUUCGCUGCCAGUGAAGAAGUGAACAAAGGGAAUCUGGGCCAGGCAGGCAUCAAAAGAAAUAGUCCUGCGCUCAACCAGAAAGUCUGUAAUCAUUUUAAGGGUA | 0.92
16 | GUUAACGGUCAUAGGCCAUGGAAACUAGGAGCACCAUUUCGCUGCCAGCGAAGAAAUGUACAAAGAAAAUCAGGGCCAGGCAGGCAUCAAAAGAAAUAGUUUUGCGCUCGACCAGAAAGUCUGUAAUCAUUUUAAGGGUA | 0.01
17 | GUUAACGGUCAUAGGCCAUGGAAACUAGGAGCACCAUUUCGCUGCCAGUGAAGAAAUGAACAAAGAAAAUCUGGGCCAGGCAGGCAUCAAAAGAAAUAGUCUUGCGCUCUACCAGGAAGUCUGUAAUCCUCUUAAGGGUA | 0.97
18 | GUUAACGGUCAUAGGCCAUGGAAACUAGGGGCACCAUUUCGCUGCCAGUGAAGAAAUGAACAAAGAAAAUCUGGGCCAGGCAGGCAUCAAAAGAAAUAGUCUUGCGCUCAACCAGAAAGUCAGUAACCAUUUUAAGGGUA | 0.82
19 | GUUAACGGUCAUAGGCCAUGGAAGCUAGGAGCACCAUUUCGCUGCCAGUGAAGAAAUGAACAAAGAAAAUCUGGGCCUGGCAGGCAUCAAAAGAAAUAGUCUUGCGCUCAACCAGAAAGUCUGUAAUCGUUUUAAGGGUA | 0.08
20 | GUUAACGGUCAUAGGCCAAGGAAACUAGGAGCACCAUUUCGCUGCCAGUGAAGAAAUGAACAAAGGAAAUCUGGGCCAGGCAGGCAUCAAAAGAAAUAGUCUUGCGCUCAACCAGAAAGUCUGUAGUCAUUUUAAAGGUA | 2.21
21 | GUUAACGGUCAUAGGCCAUGGAAACUAGGAGCACCAUCUCGCUGCCAGUGUAGAAAUGAACAAAGAAAAUCUGGGCCAGGCAGGCAUCGAAAGAAGUAGUCUUGCGCUCAACCAGAAAGUCUGUAAUCAUUUUAAGGGUA | 2.04

Row | Variant | self-cleavage
22 | GUUAACGGUCAUAGGCCAUGGAAACUAGGAGCACCAUUUCGCUGCCAGUGAAGAAGUGAGCAAAGAAAAUCUGGGCCAGGCAGGCAUCAAAAGAGAUAGUCUUGCGCUCAACCAGAAAGUCUGUAAUCAUUUUAAGGGUA | 1.84
23 | GUUAACGGUCAUAGGCCAUGGAAACUAGGAGCACCAUUUCGCUGCCAGUGAAGAAAUGAACGAAGAAAACCUGGGCCAGGCAGGCAUCAAAAGAAAUAGUCUUGCGCUCGACCAGAAAGUCAGUAAUCAUUUUAAGGGUA | 0.02
24 | GUUAACGGUCAUAGGCCACGGAAACUAGGAGCACCAUUUCGCUGCCAGUGAUGAAAUGAACAAAGAAAAUCUGGGCCAGGCAGGCAUCAAAAGAAAUAGUCUUGCGCUCAACCAGAAAGUCUGUAAUCAUCUUAAGGGUA | 1.13
25 | GUUAACGGUCAUAGGCCAUGGAAACUAGGAGCACCAUUUCGCUGCCAGUGAAGAAAUGAACAAGGAAAAUCUGAGCCAGGCAGGCAUCAAAAGAAAUAGUCUUGCGCUCAGCCAGAAAGUCUGUAAUCAUUUUAAGGGUA | 0.02
26 | GCUAACGGUCAUAGGCCAUGGAAACUAGGAGCACCAUUUCGCUGCCAGUGGUGAAAUGAACAAAGUAAAUCUGGGCCAGGCAGGCAUCAAAAGAAAUAGUCUUGCGCUCAACCAGAAAGUCUGUAAUCAUUUUAAGGGUA | 0.84
27 | GUUAACGGUCAUAGGCCAUGGAAACUAGGAGCACCAUUUCGCUGCCAGUGAAGAAAUGAACAAAGAAAAUCUGGGCCGGGCAGGCAACAAAAGGAAUAGUCUUGCGCCCAACCAGAAAGUCUGUAAUCAUUUUAAGGGAA | 0.01
28 | GUUAACGGUCAUAGGCCAUGGAGACUAGGAGCACCAUUUCGCUGCCAGUGAAGAGAUGAACGAAGAAAAUCUGGGCCAGGCAGGCAUCAAAAGAAAUAGUCUUGCGCCCAACCAGAAAGUCUGUAAUCAUUUUAAGGGUA | 0.08
29 | GUUAACGGUCCUAGGCCAUGGAAACUAGGAGCACCAUUUCGCUGCCAGUGAAGAAAUGAACAAAGAAAGUCUGGGCCAGGCAGGCAUCAAAAGAAAUAGUCUUGCGCUCAACCAGAAAGUCUGUAAUUAUUUUAAGGGUA | 1.4
30 | GUUAACGGUCAUAGCCCGUGGAAACUAGGAGCACCAUUUCGCUGCCAGUGAAGAAAUGAACAAAGAAAAUCUGGGCCAGGCAGGCAUCAAAAGAAAUAGUCGUGCGCUCAACCAGAAAGUCUGUAAUCAUUUUAAGGGUA | 0.84
31 | GUUAACGGUCAUAGGCCAUGGAAACUGGGAGCACCAUUUCGCUGCCAGUGAAGAAAUGGACAAAGAAAAUCUGGGCCAGGCAGGCAUCAAAAGAAAUAGUCUUGCGCUCAACCAGAAAGUCUGUAAUCAUUUUAAGUGUA | 0.96
32 | GUUAACGGCCAUAGGCCAUGGAAACUAGGAGCACCAUUCCGCUGCCAGUGAAGAAAUGAACAAAGAAAAUCUGGGCCAGGCAGGCAUCAAAAGAAAAAGUCUUGCGCUCAACCAGAAAGUCUGUAAUCAUUUUAAGGGUA | 2.65
33 | GUUAGCGGUCAUAGGCCAUGGAAACUAGGGGCACCAUUUCGCUGCCAGUGGGGAAAUGAACAAAGAAAAUCUGGGCCAGGCAGGCAUCAAAAGAAAUAGUCUUGCGCUCAACCAGAAAGUCUGUAAUCAUUAUAAGGGUA | 0.7
34 | GUUAACGGUCAUAGGCCAUGGAACCUAGGAGCACCAUUUCGCUGCCAGUGAAGAAAUGAACAAAGAAAGUCUGGGCCGGGCAAGCAUCAAAAGAAAUAGUCUUGCGCUCAACCAGAAAGUCUGUAAUCAUUUUAAGGGUA | 0.4
35 | AUUAACGGUCAUAGGCCAUGGAAGCUAGGAGCACCAUUUCGCUGCCAGUGAAGAAAUGAACAAAGAAGAUCUGGGCCAGGCAGGCAUCAAAAGAAAUAGUCUCGCGCUCAACCAGAAAGUCUGUAAUCAUUUUAAGGGUA | 0.9
36 | GUUAACGGUCAUAGACCAUGGAAACUAGGAGCACCAUUUCGCUGCCAGUGAAGAAGUGAACAAAGAAAAUCAGGGCCAGGCAGGCAUCAAAAGAAAUAGUCUUGCGCUCGACCAGAAAGUCUGUAAUCAUUUUAAGGGUA | 0.02
37 | GUUAAUGGUCAUAGGCCAUGGAAGCUAGGAGCACCAUUUCGCUGCCAGUGAAGAAAUGAACAAAGAAAAUCUGGGCCAGGCUGGCAUCAAAAGAAAUAGUCUUGCGCUCAACCAGAAAGUCUGUAAUCAUUUUAAGGGUA | 0.46
38 | GUUAACGGUUAUAGGCCAUGGAAACUAGGAGCACCAUUUCGCUGCCAGUGAAGAGAUGAACAAAGAAACUCUGGGCCAGGCAGGCAUCAAAAGAAAUAGUCUCGCGCUCAACCAGAGAGUCUGUAAUCAUUUUAAGGGUA | 0.56
39 | GCUAACGGUCAUAGGCCAUGGAAACUAGGAGCACCAUUUCGCUGCCAGUGAAGAAAUGAACUUAGAAAAUCUGGGCCAGGCAGGCAUCAAAAGAAAUAGUCUUGCGCUCAACCAGAAAGUCUGUAGUCAUUUUAAGGGUA | 1.48
40 | GUUAACGGUCAUAGGCCAUGGAAACUAGGAGCACCAUUUCGCUGCCAGUGAAGAAAUGAACAAAGAAAAUCCGGGCCAGGCUGGCAUCAAAAGAGAUAGUCUUGCGCUCAACCAGAAAGUCUGUAAUCAUUUUAAGGGUA | 0.51
41 | GUUAACGGUCAUAGGCCAUGGAGACUAGGAGCACCAUUUCGCUGCCAGUGAAGAAAUGAACAAAGAGAAUCUGGGCCAGGCAGGCAUCAAAAGAAAUAGUCUUGCGCUCAACCAGAAAGUCCGUAAUUAUUUUAAGGGUA | 0.67
